Data as given in the supplement of paper PMC3334620.
In all, about 33,000 sequences were measured (“E-score (-0.5 to 0.5)”: median about -0.056, highest 2% from about 0.38 on). Some of the results follow.

biological target: Stb4 (UniProt P50104); assay: PBM E-score (8-mer binding enrichment) (E-score (-0.5 to 0.5)); higher = stronger / more preferred TF binding; most listed sequences are background and not binding sites; details: protein concentration: 200 nM; construct: GST-DNA-binding domain
Summary of the method: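 Yeast transcription factors, full-length or as DNA-binding domains, were expressed with a GST tag using PURExpress in vitro transcription/translation. At about 100-200 nM they were applied to universal all-10-mer Agilent arrays, double-stranded by primer extension on fresh or once-stripped slides. Fluorescent anti-GST detected bound protein, and masliner normalised the scans. E-scores for ungapped eight-base words, pooled with reverse complements, came from the Universal PBM Analysis Suite.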

Sequence | PBM E-score
CTAGGTCC | 0.00508
GAACACCC | 0.243
GCGACAGA | -0.077
CTACAAAA | 0.097
GCAGCTGA | -0.0264
AATCTTTG | -0.0949
TTGTACAA | -0.126
AGGTAAAA | -0.0776
AGTAAAGA | -0.00352
AATTTATC | 0.141
ACCTGGAC | -0.253
CTAGATAC | 0.0146
AATCGGAG | 0.277
AAAACTAT | 0.0898
CAAGACAA | -0.0433
CTGGTACA | -0.196
GGGGACTA | -0.116
GAAAGGCC | 0.0551
GGGAACCA | -0.0292
CAAAACAG | -0.0551
GAAGTCGA | -0.0731
AACTGTTG | -0.176
GATTCCCC | 0.0429
ATGGTTTG | 0.117
ATAGCAGA | -0.173

Sequence | PBM E-score
AAGCCGCA | 0.167
GCTCTCAA | -0.131
AGCCAAGC | -0.159
CTCGTAAG | 0.0335
GCATGTAC | -0.0718
GGTGAGCA | -0.192
CATAGCAA | -0.205
CCTTACTC | 0.132
GCGGTGGA | -0.0863
AGGCGGAT | 0.303
CACTTCTC | -0.172
ATTGCGAC | 0.141
CGGCTGAG | 0.167
CTCCCGAG | 0.445
AGCTTATC | 0.0792
CGAGTGCA | 0.162
CCTAGGCA | -0.153
CAGTAAAC | -0.0736
ACGTTAGC | -0.0056
ATGTACTG | -0.187
CTCAGGTA | -0.248
ACGGCTCC | 0.194
GAGGCCTC | 0.157
ACAACGAC | 0.0401
ATTAATAC | 0.0707

Sequence | PBM E-score
ATATTAAA | 0.166
CTTTACGA | -0.204
CGGTACCA | 0.22
TGTTAAAA | -0.126
CCTGAAGC | -0.187
AAAAAGGA | 0.0442
AAGTCCTG | -0.237
TAAGGTGA | -0.055
ACGCAGGC | -0.0917
CGAAGTAG | 0.0873
CTACACAA | 0.0728
GGCACCCA | 0.0647
ATAGCCGG | 0.353
CCTCCATA | -0.12
CGCTCCCA | -0.0934
CCTAACTA | -0.0596
CGAGTTAG | 0.04
GACAGGGA | -0.221
AAAGCGTT | -0.138
CCCGTAGG | 0.0737
ATGAATCG | 0.0841
GAAAGCAC | -0.101
AGCGGGAC | 0.18
GATTACGA | -0.02
GCAGTGGA | -0.0591

Sequence | PBM E-score
ACACTTAG | -0.0398
GACTGCCC | -0.0508
GATGGAGC | -0.0181
AAGGCTAA | -0.192
ACATTCTG | -0.218
CAAGAGTC | -0.0617
CCCAGATC | 0.00073
GTTTGTAA | 0.0936
ATGGAAAC | -0.062
CAGACAAA | -0.145
CACTGGGG | -0.195
GCATAACC | 0.0415
ATACCCGG | 0.391
GCGTCGTA | 0.0854
CCTGCAGA | -0.119
CACAATGC | -0.0921
AACCGCCC | 0.0471
CACGGCTA | 0.299
ACTAGCTA | -0.0294
AGGGCTAA | -0.0922
ACGAGAGC | -0.151
TCGGACCA | 0.355
CTATGACC | -0.0232
GCGAGATA | 0.026
AACTATCG | -0.12

Sequence | PBM E-score
GACTAGGA | -0.19
AGTTACTA | -0.103
CGATCAAG | 0.04
GAGCAACA | -0.123
CTGGCCTA | -0.229
AGTTCTTC | 0.00647
ATCTTTTG | -0.0934
ACTACACG | -0.0459
CGCTTCAA | -0.112
GCGCTTTA | 0.00826
CCTTTCGA | -0.172
AAGTTGCC | 0.171
ATGGCCCG | 0.2
AAGGCTCA | -0.253
ACATCATG | -0.001
TACTCTAA | -0.18
AGGGGTCA | -0.178
CATTCGTA | -0.194
GCTGACAC | -0.143
CAGGCGAA | -0.287
AGCGGGGG | -0.331
AATAGTAA | -0.116
GCGATAAA | -0.212
CGGCGAGC | 0.149
ACTGGGAG | -0.214

Sequence | PBM E-score
AGAGCCCT | -0.208
TGACGGAA | 0.312
CGAAGACA | 0.168
AGGCACTG | -0.0638
CCTGCAAG | -0.21
CCACTGGC | -0.124
GCAAATTA | 0.0267
AACGCGCT | 0.13
AAGACTAA | -0.0727
AATGTGAG | -0.167
GTTTAAAA | -0.143
ATGTCACA | -0.146
TGATGGAA | -0.168
AGAATGCG | 0.0888
AGCAGCCG | 0.265
ATCTCGCA | -0.035
TCAGCCAA | -0.303
ATGTTGGC | -0.0363
AAGTGACC | -0.0401
CGAAGGCA | -0.0272
CGCGTCAC | -0.159
CTCTTGGC | -0.174
CCTTTGAC | -0.132
GAAGCTGC | 0.028
CCAACTTA | -0.00182

Sequence | PBM E-score
ATTTCAGG | -0.0247
GCCATTGA | -0.124
CTGGCTTC | -0.0784
ACGAAAAC | 0.154
CTATCGTC | -0.181
ATCCCAAC | -0.231
CAAAACTG | -0.174
AAGCGGCT | 0.214
AAAGTCGT | -0.224
TATGGGGA | -0.0707
AAGGACGT | -0.217
ACATGCCG | 0.225
ATCATAGA | -0.0669
TAGCGCTA | -0.0622
ATCGGTAC | 0.329
CGACTGCC | 0.0244
ATTAAACG | -0.0245
GACCTTCA | -0.109
ACAGCTCG | 0.13
CTAGTAAA | 0.00315
ACAGGCGA | -0.125
GATGTATA | -0.0148
